Experimental data reported in a collection of fitness landscapes (doi:10.1016/j.celrep.2020.107928).
Whole data set: some 81,000 sequences, median “one-hybrid fitness for binding NBS DNA” near -0.1, cut for the highest 2% near 0.36. The list shows a part of the results.

B1: Caulobacter ParB omega fusion; a variant is named by its letters at X, in order, B8GW30 (parent)
chain: MESVVVGEPGMSEGRRGLGRGLSALLGEVDAAPAQAPGEQLGGSREAPIEILQRNPDQPRRTFREEDLEDLSNSIREKGVLQPILVRPSPDTAGEYQIVAGERAWRAAQRAGLKTVPIMVRELDDLAVLEIGIIENVQRADLNVLEEALSYKVLMEKFERTQENIAQTIGKSXSHVANXMRLLXLPDEVQSYLVSGELTAXHARAIAAAADPVALAKQIIEGGLSVRETEALARKAPNLSAGKSKGGRPPRVKDTDTQALESDLSSVLGLDVSIDHRGSTGTLTITYATLEQLDDLCNRLTRGI

Variants of: B1
Assay: one-hybrid fitness for binding NBS DNA (the Noc-binding site; scaled: cognate 1, non-cognate 0); higher = stronger binding
Conditions: with NBS DNA site
Outline: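 Values were rescaled so that cognate is 1 and non-cognate is 0. Each is a fitness, the log change in a variant's read ratio to wild type from Illumina reads of plasmids before and after selection, with three replicate libraries pooled and variants under 10 reads dropped. Selection of the Caulobacter ParB libraries, four specificity codons randomised, used E. coli USO with a HIS3 reporter, site 19 bp from the promoter, on M9-minus-histidine with 0.1 mM IPTG and 5 mM 3-AT for 48 hours at 37°C.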

one-hybrid fitness for binding NBS DNA, 0.637:
QCTR

one-hybrid fitness for binding NBS DNA, ≤ 0.2:
STKE
SSTG
DEHT
DCNR
EWTG
QKPE
GGQS
HQRV
LTNV
TGHN
DGSM
EQPG
MLGM
ERTL
YVDW
SGYS
EYQC
RHLK
GFGV
DAHH
IRFR
AWPT
QFLC
PPNL
EKSC
TQWI
TIFP
QTEN
EDTR
RVFE
TLYI
TCPV
NTVM
TMRS
PPIV
VSQV
VLKA
KPRR
SKER
TTQC
TTLG
RYHG
RWER
IQHS
VHQM
HNLT
DHCS
VPGY
TWTS
HIRS
LMPP
DPHI
APHW
RGTM
VGAN
LQDC
VSNT
YVVT
KEVT
VPCF
DKRG
SPDV
TNMG
GGNC
SACV
TALL
CSNR
VEGC
CTHF
GECC
LHNK
DGDR
CTTF

one-hybrid fitness for binding NBS DNA, 0.656:
RHRR

one-hybrid fitness for binding NBS DNA, 0.202:
RANA
